The list shows a part of the results.
target: T1, OsWOX13 (Oryza sativa, UniProt Q5QMM3 1-267); test: protein-binding microarray (RPBM); PBS, 2% BSA, 51.3 ng/ul salmon testes DNA, 50 uM zinc acetate, 200 nM TF, 25 C, 1 h; high values mean tight binding; details: protein: recombinant; tags: N-terminal polyhistidine and DsRed monomer fusion (pET32a); label: CyDye5-dUTP incorporated in the synthesized complementary strand; 3' TTTTT single-stranded linker to array surface; dsDNA, one strand shown
T1 sequence: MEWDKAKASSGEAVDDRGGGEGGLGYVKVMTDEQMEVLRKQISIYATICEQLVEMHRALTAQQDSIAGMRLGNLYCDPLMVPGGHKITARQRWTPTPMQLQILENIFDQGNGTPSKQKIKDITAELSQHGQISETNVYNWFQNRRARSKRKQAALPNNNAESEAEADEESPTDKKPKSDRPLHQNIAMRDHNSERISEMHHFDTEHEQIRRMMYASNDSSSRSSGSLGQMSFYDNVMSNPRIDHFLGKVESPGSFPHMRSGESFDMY
Outline: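 An Axon 4000B scanner gave the binding signal as per-feature fluorescence intensity in arbitrary units. This followed washing of a custom Agilent array that had been incubated for 1 h at 25 °C with 200 nM protein in PBS, 2% BSA, salmon testes DNA and 50 µM zinc acetate. The proteins were transcription factors fused at the N-terminus to polyhistidine and DsRed, expressed in E. coli BL21-CodonPlus and purified on Ni–NTA.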

| Sequence | binding signal |
| --- | --- |
| GCTTGACGACACCATTCGGATTGTTCCATCACTTCCATACCGGAGTCACCTAGTGCAG | 3540 fluorescence intensity (a.u.) |
| TCTAGTCTCCGTCAATCTAATAGCGGAAGCTCGATCAGGTCGGAGTCACCTAGTGCAG | 4120 fluorescence intensity (a.u.) |
| CCACCAAATTAAAGCTGTCACAATTTACATAAATTCTTATCGGAGTCACCTAGTGCAG | 5970 fluorescence intensity (a.u.) |
| CTAATTAACACACGCACCAACTAAGATATTTCTAACTCTACGGAGTCACCTAGTGCAG | 6260 fluorescence intensity (a.u.) |
| CCTACATCAACTAATTTGATTCCTTGAGTTTACGTTTAGTCGGAGTCACCTAGTGCAG | 4890 fluorescence intensity (a.u.) |
| ATTCTAACCAATTAGTACATTTACTGTTTCCAACACTGTTCGGAGTCACCTAGTGCAG | 11600 fluorescence intensity (a.u.) |
| CGTCGGCGTCAATCAAGTAGCCAAGGACGGGGCACCCGAGCGGAGTCACCTAGTGCAG | 16800 fluorescence intensity (a.u.) |
| CACAATTGATCACTAGTGCCATCTATGCTCTTTTAACCCTCGGAGTCACCTAGTGCAG | 16000 fluorescence intensity (a.u.) |
| GCATCGTGGGGTGTGGGTGGCGGTTTTGGAGGGGAGAGGTCGGAGTCACCTAGTGCAG | 5840 fluorescence intensity (a.u.) |
| TTAACTTGATTAATATTGTAGGCTTATGGAGTTTGATCTCCGGAGTCACCTAGTGCAG | 19400 fluorescence intensity (a.u.) |
| GGTGAATTCCAATTTACAAAATGATCTTGCAACAGTACAACGGAGTCACCTAGTGCAG | 4600 fluorescence intensity (a.u.) |
| TCCTTTCTGAATGACAATCAGTTGGAGTTGGAGTTGGAGTCGGAGTCACCTAGTGCAG | 9500 fluorescence intensity (a.u.) |
| TTTGGTAAATTAAATCTCGCTGACAAAACCGATGACCTCTCGGAGTCACCTAGTGCAG | 12300 fluorescence intensity (a.u.) |
| ATGCCAATCACTCATTTGCGTTGAAATGATATTTCCATGCCGGAGTCACCTAGTGCAG | 22400 fluorescence intensity (a.u.) |
| TAGGGATTAATAAATCAAATCAAATCAAATCAAAGCTGTGCGGAGTCACCTAGTGCAG | 13500 fluorescence intensity (a.u.) |
| CGATCTCAATCACGTTGCGCCGCGTGCTCCGTTTCTGCCTCGGAGTCACCTAGTGCAG | 20100 fluorescence intensity (a.u.) |
| TAGATTGGATCAAATGTCTCGAACCAACCAGTCCTCTCTCCGGAGTCACCTAGTGCAG | 16000 fluorescence intensity (a.u.) |
| CCATTTTGCAATTAACAATCCAGGGTACATAATTACAGCCCGGAGTCACCTAGTGCAG | 3750 fluorescence intensity (a.u.) |
| TACACTCATTATCCGACAATCAGTTCTGACATGGTTGAACCGGAGTCACCTAGTGCAG | 3360 fluorescence intensity (a.u.) |
| TATAAATTTATAAAATATACATCATGGTTAAAATATTTTGCGGAGTCACCTAGTGCAG | 15700 fluorescence intensity (a.u.) |
| AATTGCCAATTAATTGTTACCTGACTTGTTTGTTTAAGCACGGAGTCACCTAGTGCAG | 44000 fluorescence intensity (a.u.) |

| Sequence | binding signal |
| --- | --- |
| CGTGCAAATTGGACATCCTTGTGGATGTACATAGTTTATGCGGAGTCACCTAGTGCAG | 9070 fluorescence intensity (a.u.) |
| GCTCAATTTTAAATGGTTAAAATTATTTCTAGAGCTCTGACGGAGTCACCTAGTGCAG | 6420 fluorescence intensity (a.u.) |
| CATGTAATTTGAAGGGACAACACTAGTTTGTGAATCTGTTCGGAGTCACCTAGTGCAG | 8240 fluorescence intensity (a.u.) |
| GCCAATCAACAACGTGATGGCTGGCGTATCAGTAGCCATGCGGAGTCACCTAGTGCAG | 12400 fluorescence intensity (a.u.) |
| CTAAACTGGGCCTTAGAGGGAAATCATTCTTTAGGACCCCCGGAGTCACCTAGTGCAG | 7490 fluorescence intensity (a.u.) |
| CTAGCAATCAACGTGCAATTTTGTACAAATACTCTCCTCCCGGAGTCACCTAGTGCAG | 17800 fluorescence intensity (a.u.) |
| GACCTGTATCAGATTGAAGCTTTGATCAACTGTTATATTGCGGAGTCACCTAGTGCAG | 5570 fluorescence intensity (a.u.) |
| CATCAACTTCTTCCCAATCAGCCGCTTCTACTACTACTAACGGAGTCACCTAGTGCAG | 3700 fluorescence intensity (a.u.) |
| GCTAGATTGATATGTTAAATCTACCCTTTATGCTAAGATCCGGAGTCACCTAGTGCAG | 45600 fluorescence intensity (a.u.) |
| TTTATTGATGCCAAAATGTTGTCAATTTCACAATTTCATGCGGAGTCACCTAGTGCAG | 3520 fluorescence intensity (a.u.) |
| AAGGCACATAAATAGATTGACACTATAGATAGTGGAATAGCGGAGTCACCTAGTGCAG | 30100 fluorescence intensity (a.u.) |
| TAGCCACGTAATTTTGACAGGCTGCTCTTGCAGTTAGTGGCGGAGTCACCTAGTGCAG | 11200 fluorescence intensity (a.u.) |
| ATAATAATTAGTCATAAAGACAAGTGCTTATGCCCACTTACGGAGTCACCTAGTGCAG | 16700 fluorescence intensity (a.u.) |
| TTAATTACCGTATTCTCTCCGATTCGTATTAGATTCGTGTCGGAGTCACCTAGTGCAG | 4490 fluorescence intensity (a.u.) |
| TACACAGATTGCGTGTAAATTGCGATACGAATCTTTTAAGCGGAGTCACCTAGTGCAG | 10700 fluorescence intensity (a.u.) |
| TTAATTCATGATTTGCTACAGTGATGCTACAGTAATCAGCCGGAGTCACCTAGTGCAG | 22100 fluorescence intensity (a.u.) |
| GGTGATGGACTGATGGCTATGGTTATGTCTCTGTTGCTGTCGGAGTCACCTAGTGCAG | 34400 fluorescence intensity (a.u.) |
| TGCAGTTTACACTTAAATTGATAATATAAGCATGATGTATCGGAGTCACCTAGTGCAG | 14800 fluorescence intensity (a.u.) |
| GATTCCCTTCTTTTCTTTGGTTGATTTCTTTCTGTATTTCCGGAGTCACCTAGTGCAG | 5880 fluorescence intensity (a.u.) |
| CACTAACCCTAATAATTACACCGCTGTACATTTGAAAGGACGGAGTCACCTAGTGCAG | 4090 fluorescence intensity (a.u.) |
| ATTGATTGGCCCAAGATATCCATCGGCATCGGCGCCGGCGCGGAGTCACCTAGTGCAG | 13900 fluorescence intensity (a.u.) |

Source: PMC7819943, “Rice protein-binding microarrays: a tool to detect cis-acting elements near promoter regions in rice”
